# Reference: the supplement of paper PMC3334620
# Over roughly 33,000 sequences, “E-score (-0.5 to 0.5)” has its median near -0.036; the highest 2% begin near 0.37. This is one part of the list.
# Biological target: T1, Yer064c (UniProt P40041)
# T1 sequence: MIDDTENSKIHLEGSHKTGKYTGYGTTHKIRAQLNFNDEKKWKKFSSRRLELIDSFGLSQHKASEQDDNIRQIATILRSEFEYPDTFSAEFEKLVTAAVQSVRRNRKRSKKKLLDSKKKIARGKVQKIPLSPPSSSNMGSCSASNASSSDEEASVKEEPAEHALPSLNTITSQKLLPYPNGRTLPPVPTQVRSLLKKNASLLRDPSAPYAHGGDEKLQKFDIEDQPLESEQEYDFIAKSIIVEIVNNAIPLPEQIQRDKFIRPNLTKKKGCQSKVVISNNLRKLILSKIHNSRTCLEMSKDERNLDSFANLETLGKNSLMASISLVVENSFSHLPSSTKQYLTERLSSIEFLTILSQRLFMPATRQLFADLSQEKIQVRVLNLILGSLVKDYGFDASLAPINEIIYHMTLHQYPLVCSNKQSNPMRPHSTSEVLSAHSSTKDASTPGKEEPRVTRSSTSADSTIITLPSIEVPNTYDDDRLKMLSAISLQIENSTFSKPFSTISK
# Assay: PBM E-score (8-mer binding enrichment) (E-score (-0.5 to 0.5)); higher = stronger / more preferred TF binding; most listed sequences are background and not binding sites
# Conditions: protein concentration: 200 nM; construct: GST-full length
# Description: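 Universal 'all 10-mer' protein binding microarrays (Agilent AMADID 015681) probed with GST-tagged S. cerevisiae TFs (full-length or DBD) made by in vitro transcription/translation (PURExpress), about 100-200 nM. Bound TF was detected with fluorescent anti-GST. Each ungapped 8-mer (which stands for itself and its reverse complement) is scored by the PBM enrichment score (E-score), a modified Wilcoxon-Mann-Whitney statistic from -0.5 to +0.5, computed with the Universal PBM Analysis Suite. Scale: above 0.35 generally sequence-specific binding.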
row,Sequence,PBM E-score
1,TAGAAGAA,-0.0204
2,CGCCATAC,-0.054
3,AGTTTTAT,0.048
4,CCGAAGTA,0.0802
5,CAAATAAC,-0.0739
6,AATCAACT,0.314
7,ACATCGCC,-0.0494
8,CAATGCCA,-0.221
9,CGTTCTTA,-0.119
10,AACCATTC,0.0438
11,TGGCATAA,0.0552
12,CGACATAG,-0.0127
13,GGGGCGAC,0.186
14,CGTACGCA,-0.195
15,TCCTGCAA,0.0154
16,CTGGAGAC,-0.0698
17,TGACTGCA,0.404
18,AAAGGACG,-0.176
19,AAAAATTG,-0.139
20,TGCATCAA,-0.0146
21,ATATAAAG,-0.0351
22,GGCGCATA,-0.146
23,CTCTGAAG,0.0349
24,CATGAGAC,0.322
25,ACTGCCTC,-0.182

row,Sequence,PBM E-score
1,CAAGACCG,-0.316
2,AACCGTCT,-0.124
3,TGGCCTAA,-0.157
4,ATCATCCA,0.306
5,CACATCGC,0.0595
6,AAAACGTC,-0.0495
7,GTCAAAAC,0.256
8,GATAGTAA,0.149
9,TATGTACA,-0.0169
10,AAAGCCAC,-0.107
11,AGGCCCGC,-0.178
12,CCCACTAG,-0.284
13,GTGAGCTA,0.0552
14,AAGAAATC,-0.0761
15,CGCAGGTC,-0.302
16,CCCCGTGA,0.0132
17,GAGAATAA,0.13
18,AAACTAGC,-0.145
19,GGATAAAC,-0.0274
20,AACCTGCA,-0.129
21,GGTTACAA,0.121
22,AACGGGCG,-0.205
23,AATACATA,0.0284
24,AAAGCACA,0.0818
25,GGGTTTAC,-0.116

row,Sequence,PBM E-score
1,TATAAATA,0.0631
2,ATACCTAA,-0.0224
3,ATACGCCG,-0.239
4,AGCGAGTA,0.115
5,GGATGGCC,-0.288
6,AGTGCCAA,-0.102
7,GATCTCAA,0.0495
8,ACTGGCAC,-0.188
9,CTGAGACC,0.0557
10,AGAGCGAA,0.189
11,GAGGGGTA,-0.0967
12,GCTCATGA,0.196
13,CATTAGAC,0.0825
14,CGGCTACC,-0.0934
15,AATGCGTC,-0.125
16,CAGAGATA,0.0363
17,GTTCCTTA,-0.137
18,ACGGGAAG,-0.109
19,CAGAGTAA,-0.0541
20,AGAGCCTC,-0.263
21,CTGGCTCC,-0.182
22,TCATCGCA,0.291
23,ACTAGCCC,0.14
24,AATAGTGA,0.184
25,AGGGAGTG,-0.175

row,Sequence,PBM E-score
1,AGCACGTG,0.0502
2,AGAGGCAG,-0.127
3,AACTGTAT,0.101
4,CCTCATAG,-0.00122
5,GCTAGTAC,-0.0099
6,CCAGGAAG,-0.101
7,TATCCTCA,-0.0737
8,AGGCAACT,0.045
9,AACGAAAT,-0.028
10,AAGGGACC,-0.263
11,GCGGGTAC,0.0539
12,ACGGTAAG,-0.187
13,ACAACACA,0.108
14,CAACCGAA,0.112
15,AGAATGGC,-0.0575
16,ACAGCCAT,-0.0265
17,AATGGGGG,-0.354
18,AGTTCGAT,-0.0556
19,AACTCCGT,-0.105
20,AAGAAAGC,-0.105
21,CACGCACG,-0.183
22,ACAGAGAT,-0.00825
23,ATTTTGCC,-0.0975
24,ATTGGGTG,-0.00934
25,ACCGTGGG,-0.157

row,Sequence,PBM E-score
1,TGCAGTAA,0.0323
2,CATCGTGG,0.0139
3,GTCCGGAA,-0.0321
4,ACTAGGCA,-0.0739
5,AGGTCGCA,-0.108
6,AGGAGGGA,-0.156
7,GTTTCAAA,0.0649
8,AGATAAAT,0.0803
9,GACACCAC,-0.104
10,ACATACTC,0.157
11,AATGTAGC,-0.211
12,CGTAGTGA,0.0979
13,ACGGCAGC,-0.161
14,GTCACTCA,0.334
15,CAGGCGGA,0.0674
16,TAAAGAGA,0.108
17,ACTGCGTG,0.0677
18,GCAATCTA,-0.136
19,TGATAACA,0.0404
20,CAGCGATC,-0.12
21,GCAGCTCA,-0.0529
22,CCACCTGA,0.089
23,GGAACGCC,-0.27
24,ACGGCCTG,-0.12
25,AAAATCAA,0.101

row,Sequence,PBM E-score
1,AACACCGC,-0.177
2,AGTTCGGA,-0.0233
3,ATCACTAC,0.135
4,TGTCTTAA,-0.0134
5,ATTTGCAA,0.0994
6,CTGGTCTC,-0.044
7,GAACTGAC,-0.0132
8,ACGTTGCC,-0.21
9,ACCCATTG,-0.015
10,GCAACCAC,0.0872
11,AGTTGGAG,-0.0979
12,ACAACGCA,-0.114
13,CCACTAAA,-0.0544
14,AATACCCC,-0.434
15,CGCCTCAG,0.0344
16,ATTTGATC,0.0453
17,CCTATCTA,-0.0991
18,ATGGAATA,-0.193
19,AAAACCAG,0.131
20,CCTAGAAC,-0.117
21,TAATCCCA,-0.0399
22,ATCCGTCG,-0.269
23,GATTGGAC,-0.113
24,ACGGTGAT,0.184
25,AGCAACAA,0.101

row,Sequence,PBM E-score
1,CAACGCGC,0.0416
2,AATATCTC,-0.161
3,GTCCTCGA,0.197
4,ACTCATTA,0.372
5,ACAGAGCA,-0.0761
6,ATATTGCG,-0.172
7,CTCCGGGA,-0.0772
8,AGATGCGA,-0.0203
9,CCAAGAGA,0.0458
10,CATCTGCG,-0.141
11,CGTTTTGA,0.16
12,AGTTGAAA,0.0188
13,CCAGTGGA,-0.146
14,CCGACAAG,-0.0734
15,ATATGTGA,0.143
16,CCCTCTCC,-0.104
17,CTTCACAC,0.026
18,ATAGTAGG,0.042
19,AGGTTCAA,0.12
20,CTGTGCGC,-0.198
21,TACCTAAA,-0.0585
22,GGGCGGAC,-0.227
